The campaign covered roughly 7,900 compounds. About 400 (5.1%) showed an effect of 50% or more. The list shows a part of the results.

The assay deals with Parkinson's disease protein 7 (PARK7/DJ1) (human, UniProt Q99497). The experiment in a line: primary screen, percent inhibition; read as competition with a fluorescent probe by fluorescence polarization; higher = more effect of the substance. Conditions: 100 µM. In a few lines: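 Fluorescence-polarization probe displacement (JYQ-107, 20 nM final, 2 h) after 2 h preincubation of PARK7 (0.2 μM final) with each fragment at 100 μM final. Read-out ex/em 480/520 nm; remaining activity derived from FP signal loss relative to reference controls.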
Parkinson's disease protein 7 (PARK7/DJ1), sequence (Q99497 whole entry, looked up, the tested form may be a part): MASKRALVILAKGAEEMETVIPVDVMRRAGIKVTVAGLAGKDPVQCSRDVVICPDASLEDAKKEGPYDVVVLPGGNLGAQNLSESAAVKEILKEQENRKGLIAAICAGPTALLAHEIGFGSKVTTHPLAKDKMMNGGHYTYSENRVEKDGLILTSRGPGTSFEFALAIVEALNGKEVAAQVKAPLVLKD
As to `Cc1ccc(C=CS(=O)(=O)Nc2cc(C)nn2C)cc1`, the Inhibition % stood at 20%.

With `N#CC(=Cc1ccco1)C(=O)O`, the Inhibition % came to 4.73%.

Regarding `COc1ccccc1C=CC(=O)N1CCNC(=O)C1`, the Inhibition % is recorded as 13.9%.

Regarding `Cc1cnc(C#N)c(C)c1`, the Inhibition % amounted to 6.16%.

For the compound `CC(C)(C)OC(=O)Nc1ccc(F)c(B2OC(C)(C)C(C)(C)O2)c1`, the Inhibition % is recorded as 4.59%.

For the compound `Cl.OB(O)c1ccc(CN2CCOCC2)cc1`, the Inhibition % turned out to be 2.75%.

Take `Cc1ccoc1C=C(C#N)C(=O)NCc1ccco1`: the Inhibition % is on record as 2.51%.

`CCOc1cc(C)c(C)cc1S(=O)(=O)n1ccnc1CC`: the Inhibition % was determined as 5.01%.

For the compound `COc1nc(C#N)ncc1C`, the Inhibition % is recorded as 1.53%.

On to `CCC(=O)N1CCc2cc(C(=O)CCl)ccc21`, for which the Inhibition % worked out at 3.43%.

Regarding `C=CC(=O)NCC1CCCOC1c1ccc(C)cc1` (stereo not shown), the Inhibition % is reported as 9.55%.

Consider `CCOc1cc(S(=O)(=O)n2nc(C)cc2C)ccc1F`, for which the Inhibition % turned out to be 1.46%.

Consider `CC(=O)c1ccc(F)c(B2OC(C)(C)C(C)(C)O2)c1`, for which the Inhibition % is recorded as 5.97%.

In the case of `N#Cc1n[nH]c2ccccc12`, the Inhibition % stood at 5.12%.

Consider `N#CN(Cc1nccs1)c1ccc(F)cc1`, for which the Inhibition % was determined as 24.2%.

For the compound `C=CCNC(=O)C(C#N)=Cc1ccc2c(c1)OCCO2`, the Inhibition % worked out at 6.87%.

As to `CC1(C)OB(c2ccco2)OC1(C)C`, the Inhibition % is 7.09%.

Take `Cc1ccc(Oc2ccc(NC(=O)CCl)cc2)cc1`: the Inhibition % is recorded as 36.3%.

For the compound `N#Cc1nccnc1N1CCCC2(CC=CCC2)C1` (stereo not shown), the Inhibition % is listed as 9.07%.

Turning to `COCCn1cc(B2OC(C)(C)C(C)(C)O2)cn1`, the Inhibition % came out at 10.8%.

Regarding `O=C1OCC[C@@H]1NS(=O)(=O)c1csc2ccccc12`, the Inhibition % was determined as 6.58%.

Turning to `O=C(Nc1ccc(S(=O)(=O)F)cc1)c1cc2c(=O)[nH]cnc2cn1`, the Inhibition % was found to be 9.83%.

As to `N#Cc1nc(Cc2ccccc2)oc1N1CCOCC1`, the Inhibition % worked out at 0.611%.

For `C=CC(=O)NCC1(CO)COCC2(CCC2)N1C` (stereo not shown), the Inhibition % worked out at 4.79%.

Take `CCO[C@H]1C[C@H](n2cc(-c3ccc(S(=O)(=O)F)cc3)nn2)C1`: the Inhibition % is listed as 29%.

As to `O=C(CCl)NC1CCCCC1`, the Inhibition % is listed as 11.7%.

Consider `O=C(CCl)NCCCn1cccn1`, for which the Inhibition % worked out at 7.26%.

For `CCCNC(=O)C(C#N)=Cc1ccc(C2OCCO2)cc1`, the Inhibition % was found to be 21.9%.

Regarding `COc1ccc(CC(C)=CC#N)cc1`, the Inhibition % turned out to be 23.8%.

Consider `COc1ccc(-c2nc(C#N)c(N3CCCC3)o2)cc1`, for which the Inhibition % is reported as 5.17%.

Take `N#Cc1nccnc1NCC1(Sc2ccccc2)CC1`: the Inhibition % is -1.71%.

Regarding `COc1cccc2c1CCC2NC(=O)c1cccnc1S` (stereo not shown), the Inhibition % is listed as 1.42%.

With `C=CC(=O)Nc1ccc(N2CCCC(C(N)=O)C2)nc1` (stereo not shown), the Inhibition % is recorded as 27.7%.

Consider `O=C(CCl)c1ccc(F)cc1F`, for which the Inhibition % was determined as 18.5%.

Regarding `O=C(CCl)Nc1cc([N+](=O)[O-])ccc1F`, the Inhibition % was 17.5%.

Consider `C=CC(=O)NC1CCc2nnc(CC)n2C1` (stereo not shown), for which the Inhibition % was found to be 7.66%.

Regarding `C=CC(=O)N1CCCC1CSC` (stereo not shown), the Inhibition % is listed as 6.12%.

For the compound `Cc1cccc(CC(CO)Nc2ccc(C#N)nc2)c1` (stereo not shown), the Inhibition % is reported as -2.96%.

As to `CCC(=O)N(c1cc(C)cc(C)c1)C1C=CS(=O)(=O)C1` (stereo not shown), the Inhibition % stood at 6.07%.

`CC(C)(C)OCCOc1cccc(C#N)n1`: the Inhibition % stood at 9.61%.

As for `CC(NC(=O)CCl)c1ccc(F)cc1F` (stereo not shown), the Inhibition % is 7.43%.

For the compound `OB(O)c1ccccc1COc1ccc(F)cc1`, the Inhibition % is on record as 7.53%.

For the compound `O=S1(=O)CCC2OC2C1` (stereo not shown), the Inhibition % turned out to be 9.31%.

On to `O=C1OCCC1Sc1nnc(-c2ccco2)o1` (stereo not shown), for which the Inhibition % is 13.9%.

For `C=CC(=O)NCC1CCOCC1`, the Inhibition % is given as 7.85%.

On to `Cn1cc(NS(=O)(=O)C=Cc2ccccc2Cl)cn1`, for which the Inhibition % is listed as 28.6%.

Turning to `N#CC(=Cc1ccc(F)cc1)c1nnc2n1CCCCC2`, the Inhibition % turned out to be 6.3%.

Turning to `N#CC1(CCCCl)CCOCC1`, the Inhibition % came out at 9.63%.

As to `Cn1c(S(=O)(=O)F)cc2ccccc21`, the Inhibition % is recorded as -1.5%.

With `C=CC(=O)N1CCOCC1(C)CC` (stereo not shown), the Inhibition % turned out to be 10.6%.

On to `C=CC(=O)N1CCc2ccc(C)cc21`, for which the Inhibition % is given as 4.18%.

Turning to `C=CC(=O)NCC1CCc2cccnc21` (stereo not shown), the Inhibition % stood at 4.09%.

Regarding `N#Cc1nc(-c2ccco2)oc1N1CCN(C(=O)CCl)CC1`, the Inhibition % came out at 51.4%.

As for `C=CC(=O)NCCS(=O)(=O)N1CCOCC1`, the Inhibition % came to 6.18%.

With `Cc1ccsc1C=CC(=O)N1CCC(C(N)=O)CC1`, the Inhibition % is 9.43%.

As to `C=CC(=O)Nc1nnc(CC(F)(F)F)s1`, the Inhibition % is recorded as 8.25%.

As for `CC(C)c1csc(CNC(=O)c2cccnc2S)n1`, the Inhibition % is 4.25%.

Turning to `CC1(C)OB(c2cccc3c2CCC3)OC1(C)C`, the Inhibition % came out at 3.3%.

With `C=CC(=O)NC1CCOCC1OC` (stereo not shown), the Inhibition % came out at 5.16%.

Regarding `O=S(=O)(Oc1ccccc1)c1ccc2c(c1)OCCCO2`, the Inhibition % is given as 16%.

Take `COc1cc(S(=O)(=O)n2ccc(C)n2)c(C)cc1C`: the Inhibition % was 8.3%.

In the case of `C=CC(=O)NCC1(C)CCC(C)CC1` (stereo not shown), the Inhibition % turned out to be 4.28%.

In the case of `COCCNC(=O)C(C#N)=Cc1cccc2ccccc12`, the Inhibition % is recorded as 11.9%.

Turning to `CS(=O)(=O)NC1CCCN(C(=O)C=Cc2cccnc2)C1` (stereo not shown), the Inhibition % worked out at 5.3%.

As to `O=C(NCc1ccc(F)c(CO)c1)c1cccnc1S`, the Inhibition % was 6.71%.

For `O=C1CCC(CC(=O)Nc2cccc(S(=O)(=O)F)c2)CC1`, the Inhibition % stood at 98.3%.

Take `Cc1nc(C#N)c(N)o1`: the Inhibition % is 16.5%.

Consider `O=C1NCC12CCCOC2` (stereo not shown), for which the Inhibition % stood at 6.54%.

Turning to `CC(C)OCCN(C)c1nc2ccccn2c1C#N`, the Inhibition % was 3.68%.

On to `O=S(=O)(F)CCn1nnc(-c2ccccc2)n1`, for which the Inhibition % came out at 35.7%.

Regarding `C=CC(=O)N1CCCC1C(C)(C)CC` (stereo not shown), the Inhibition % came to 12.9%.

Turning to `Cc1ccc(C=CC(=O)N2CCC(C)(C(=O)O)C2)o1` (stereo not shown), the Inhibition % was found to be 6.29%.

Turning to `Cc1ccccc1-n1cnnc1SC1CC(C)OC1=O` (stereo not shown), the Inhibition % came out at 4.79%.

In the case of `COc1cccc(C2CO2)c1` (stereo not shown), the Inhibition % worked out at 21.3%.

Turning to `Oc1nc(S)nc2scnc12`, the Inhibition % is 4.25%.

As for `Cc1ccc(N2CCCC(CC(N)=O)CC2)nc1C#N` (stereo not shown), the Inhibition % turned out to be 15.2%.

For the compound `C=CC(=O)N1CCCC(CCC(N)=O)C1` (stereo not shown), the Inhibition % came to 6.39%.

Turning to `O=C(O)CCn1c(S)nc2ccccc2c1=O`, the Inhibition % was 7.16%.

Regarding `C=CC(=O)N1CCCN(c2nc(C)ns2)CC1`, the Inhibition % is 11.5%.

The values are drawn from PMC9574860, “Chemical Toolkit for PARK7: Potent, Selective, and High-Throughput” (Journal of Medicinal Chemistry, 2022).
